Source: PubChem BioAssay AID1508623 (National Center for Advancing Translational Sciences (NCATS), 2021)
About 450 (0.94%) of roughly 48,000 compounds were called active. Roughly 19% stayed inconclusive and do not appear here. Calls follow the shape of the dose curve; as a rule, active = well fitted inhibition curve with a large enough effect; inconclusive = small, poorly fitted or top-dose-only effect; inactive = no such curve, though single readings can be large or run the other way. This is one part of the list.

Experiment: Primary qHTS for Identification of Small Molecule Inhibitors of Huntingtin Promoter Activity; also: nearly all actives have a fitted effect of over 50% in size
Conditions: HEK293 HTT promoter firefly luciferase reporter (activity 0% = vehicle and -100% = no light), 24 h; series mostly up to 57.5 µM; activity change, negative = inhibition: at the top concentration
Method in brief: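 Quantitative HTS used concentration series of up to 57.5 uM final on HEK293 luciferase reporter cells, 24 h at 37 degrees C. Readout was Dual-Glo firefly luminescence.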

Activity change, negative = inhibition, inactive:
COc1ccc(CNC(=O)CCS(=O)(=O)c2cc3c4c(c2)CCN4C(=O)CC3)cc1OC -12.4%
COc1ccc(C2C(C(=O)Nc3cccnc3)=C(C)Nc3nc(-c4ccc(OC)c(OC)c4)nn32)cc1 (centres undefined) -24.2%
CCOC(=O)c1c(C)[nH]c(CCC(=O)NCc2cc(Br)ccc2OC)c1C -29.8%
Cc1c(C(=O)N2CCCC2)oc2c1-c1nn(CC(=O)NCc3ccccc3F)cc1CC2 -23.6%
Cc1sc(NC(=O)C2c3ccccc3Oc3ccccc32)c(C(=O)OC(C)C)c1C -6.49%
Cc1ccc(S(=O)(=O)c2nnn3c2nc(N(C)Cc2ccccc2)c2cc(Cl)ccc23)cc1C 0.787%
CC(C)NC(=O)C1=CC(c2ccc3c(c2)OCO3)=NS(=O)(=O)N1C -12.9%
Cc1nnc(N2CCCC(C(=O)Nc3cc(F)ccc3F)C2)c2nn(-c3ccccc3)c(C)c12 (centres undefined) -3.62%
CCCn1cnc2c1c(=O)n(CCCCC(C)=O)c(=O)n2C -1.45%
CC1CCN(c2nc3ccccc3nc2SCC(=O)Nc2ccccc2C(C)C)CC1 -19.6%
CCCN1CCN(c2ncnc3sc(C(=O)Nc4ccc(OC(F)(F)F)cc4)c(C)c23)CC1 -20.8%
CC(=O)c1ccc(NC(=O)Cn2c(=O)nc(-c3ccccc3)c3ccccc32)cc1 -17.4%
COc1cc(NC(=O)COCc2cc(-c3ccc4c(c3)OCO4)on2)c(OC)cc1Cl -8.93%
CCOc1ccc(C(=O)c2cn(CC(=O)Nc3ccc(C)c(Cl)c3)c3ccc(OCC)cc3c2=O)cc1 -11.4%
CCCCC(=O)OCc1cc(=O)n2nc(C3CC3)sc2n1 -1.02%
O=C(NC1(C(F)(F)F)N=C(c2ccccc2)N(Cc2ccccc2)C1=O)c1ccc(F)cc1 (centres undefined) -18.8%
CC1CCN(S(=O)(=O)c2ccc3c(c2)N(CC(=O)N(C)Cc2ccccc2)C(=O)CO3)CC1 -8.97%
Cc1ccccc1CN1C(=O)C(O)(c2c[nH]c3ccccc23)c2cc(Cl)ccc21 (centres undefined) -15.3%
O=c1c2sc3ccccc3c2n(Cc2cccc(Cl)c2)c(=O)n1Cc1ccc(F)cc1 -7.9%
O=C(c1ccc2c(c1)N(Cc1ccccc1)C(=O)c1ccccc1S2(=O)=O)N1CCC(Cc2ccccc2)CC1 -9.5%
Cc1cc(C)c(NC(=O)Cn2nnc3sc4c(c3c2=O)CCC(C(C)(C)C)C4)c(C)c1 (centres undefined) 13.6%
COc1cc(C2c3c(-c4ccccc4O)n[nH]c3C(=O)N2Cc2ccncc2)cc(OC)c1OC (centres undefined) 1.43%
COc1ccc(CNC(=O)C2CCN(C(=O)N3CCOc4ccc(C)cc43)CC2)cc1 -31.4%
CC1CCCN(C(=O)c2ccc(CSc3nc4ccncc4n3Cc3ccccc3)cc2)C1 (centres undefined) -23.8%
CCc1cc(C(=O)N2CCN(c3ccccc3)CC2)no1 -6.58% [at 11.5 µM]
Cc1cccc(-n2c(=O)c3c(c4cc(C)ccc4n3C)n(CC(=O)Nc3ccc(C)c(C)c3)c2=O)c1 -20.9%
COc1ccccc1N1CCN(c2c3c(nc4nncn24)CCC3)CC1 -7.88%
CC(C)(C)NC(=O)Cn1cc(S(=O)(=O)Cc2ccccc2Cl)c2ccccc21 10.3%
Cc1cccc(NC(=O)Cn2c(=O)n(Cc3nc(-c4ccccc4)no3)c(=O)c3ccccc32)c1 -32.4%
COC(=O)c1sccc1S(=O)(=O)N(CC(=O)NCc1ccc(F)cc1)c1ccccc1 -12.7%
COc1ccc(C)cc1NS(=O)(=O)c1ccc2c(c1)CCCN2C(C)=O -14.8%
C#CCN(C)CCCOc1ccc(Cl)cc1Cl 7.23%
COc1ccc(-c2nc(SCC(=O)NCC3CCCO3)c(-c3ccc(C)cc3)[nH]2)cc1OC (centres undefined) 4.77%
COc1ccc(NC(=O)N2CCN(Cc3nc4ccc(C)cc4o3)CC2)cc1OC -20.4%
COc1ccc(-c2c(C#N)c(SCC(=O)Nc3ccc(C)c(C)c3)nc(C)c2C(=O)Nc2ccccc2)cc1OC -17.9%
Cc1ccc(N(C)S(=O)(=O)c2nnc(NC(=O)c3ccco3)s2)cc1 -5.1%
O=C(O)CN(CCN(CC(=O)O)CC(=O)O)CCN(CC(=O)O)CC(=O)O -7.61% [at 25.2 µM]
CCc1ccc(NCc2cc3cc4c(cc3n(CC(=O)Nc3ccc(OC)cc3)c2=O)OCO4)cc1 -20.4%
CCc1ccc(C2c3c(-c4cc(C)ccc4O)n[nH]c3C(=O)N2CCO)cc1 (centres undefined) -16.7%
Cn1c(SCC(=O)N2CCOCC2)ncc(C(=O)Nc2ccc(F)cc2)c1=O 0.0161%
CCCSc1nc2sc3c(c2c(=O)n1-c1ccc(C)cc1)CCCC3 -9%
CCOC(=O)c1c(S(=O)(=O)NCC(=O)Nc2cccc(SC)c2)c(C)n(C)c1C 1.48%
COc1ccc(NC(=O)CCCS(=O)(=O)c2nc(-c3ccccc3OC)cc(C(F)(F)F)n2)c(OC)c1 15.2%
CC1=C(c2ccc(C(C)C)cc2)S(=O)(=O)NC1=NCc1ccc(OC(C)C)cc1 -19.6%
Cc1ccc(CNC(=O)C2CCCN(c3nc4ccccc4n4cccc34)C2)cc1 (centres undefined) -24.2%
COc1ccc(C(C)NC(=O)CN(c2cc(OC)ccc2OC)S(=O)(=O)c2ccccc2)cc1 (centres undefined) -16.8%
CC1CCN(CCCNC(=O)CN2C(=O)CSc3ccc(S(=O)(=O)N4CCCCC4)cc32)CC1 -0.438%
Brc1cccc(-c2nn(-c3ccccc3)c3c2cnc2cc4c(cc23)OCO4)c1 -4.58%
CCc1cccc(C)c1NC(=O)C1CCN(S(=O)(=O)c2cc(Br)cc3c2N(C(C)=O)CC3)CC1 12.7%
Cc1ccc(C)c(CN2CCC(CNC(=O)C(CC(C)C)N3Cc4ccccc4C3=O)CC2)c1 (centres undefined) -18.1%
COCCn1c(CNC(=O)c2ccccc2C)nc2cccnc21 -0.603%
COc1ccc(NC(=O)Nc2cccc(-c3noc(C)n3)c2)cc1 -23.2%
COc1cccc(-n2ccnc2SCC(=O)Nc2cccc3ccccc23)c1 -28.9%
COc1ccc(-n2c(CC3C(=O)Nc4ccc(C)cc43)nc3ccccc3c2=O)cc1 (centres undefined) -5.38%
O=C(NCc1ccccc1Cl)c1ccc2c(c1)ncn2-c1cccc(F)c1 -0.32%
O=c1c2c3c(sc2nnn1CCCCOc1ccc(Cl)cc1)CCCC3 7.33%
COc1cc(-c2noc(-c3cc4cccc(C)c4oc3=O)n2)cc(OC)c1OC -7.13%
CCOc1ccccc1-n1c(N)c(C(=O)OC)c2nc3ccccc3nc21 -18.2%
COc1ccc(-c2nsc(NC(=O)c3oc4ccc(Cl)cc4c3C)n2)cc1 -3.16%
O=C(Nc1ccc(F)cc1)c1nc(SCc2ccccc2F)ncc1Cl -12.8%
N#C/C(=C/c1ccc(O)cc1)c1nc(-c2ccc(-c3ccccc3)cc2)cs1 3.87%
Cc1ccc(OCCn2c(CNc3ccccc3C)nc3ccccc32)cc1 16.5%
Cc1cc(NC(=O)c2cnn(-c3ccccc3)c2-n2cccc2)ccc1Br -5.62%
COc1cccc(-c2nc3c(C#N)c[nH]n3c2NC2CCCCC2)c1 9.53%
COc1cccc(CNC(=O)CN(c2ccc(C)cc2)S(=O)(=O)N(C)C)c1OC -5.34%
CCc1cccc(NC(=O)Cn2c(=O)n(CC3CCC(C(=O)NC)CC3)c(=O)c3sccc32)c1 (centres undefined) -20.5%
N#CC1=C(N)N(c2ccc(Cl)cc2)C2=C(C(=O)CCC2)C1c1cc(CN2CCOCC2)cs1 (centres undefined) 0.494%
O=C(NC1CCCCC1)c1ccc2c(c1)N(Cc1ccc(F)cc1)C(=O)c1ccccc1S2(=O)=O -16.9%
COc1cc(C(=O)Nc2cc(C)c(O)c(-c3nc4cc(Cl)ccc4o3)c2)cc(OC)c1OC -10.8%
CCN(CC)C(=O)c1sc2c(c1C)c(=O)n(-c1ccccc1)c(=O)n2CC(=O)N(CC)c1cccc(C)c1 0%
Cc1cn2c(=O)cc(COC(=O)COc3ccc(C)c(C)c3)nc2s1 -7.37%
CCCOc1ccc(C(=O)N(Cc2ccc(Cl)cc2)Cc2ccco2)cc1 -28.7%
C=C1C(=CC=C2CCC[C@]3(C)[C@@H]([C@H](C)CCCC(C)(C)O)CC[C@@H]23)C[C@@H](O)C[C@@H]1O 18.7%
CC(CCc1ccc2c(c1)OCO2)NN (centres undefined) 5.9%
Cc1ccc(CNC(=O)c2ccc3c(c2)NC(=O)C(CS(=O)(=O)Cc2cccc(C)c2)N3)cc1 (centres undefined) -19.9%
COc1cc(NC(=O)CCS(=O)(=O)c2ccc(Br)cc2)cc(OC)c1 -15.5%
CN(C(=O)CSc1nncn2c1cc1occc12)c1ccccc1 4.66%
CCCCN(C)C(=O)CN1C(=O)c2cccnc2Oc2ccc(Cl)cc21 3.55%
CC(C)c1ccc(-c2noc(SCC(=O)N3CCN(c4ccccc4F)CC3)n2)cc1 -1.73%
O=C(NCc1cccs1)c1ccc2c(c1)sc1nc(-c3ccccc3)cn12 20.9%
COc1ccc(Cn2ccn(CC(=O)Nc3cc(C)ccc3C)c(=O)c2=O)cc1 -13.4%
Cc1ccc(NC(=O)Cn2c(=O)ccc3cc(S(=O)(=O)N4CCCC4)ccc32)cc1C -18.8%
Cc1cc2nn(-c3ccc(F)cc3)nc2cc1NC(=O)c1ccc(C(C)(C)C)cc1 -1.91%
COc1cc(CN(C(=O)c2ccccc2)c2ccccn2)cc(OC)c1OC -13.8%
COc1ccc(-c2cn3cccnc3n2)cc1NC(=O)c1ccccc1C(F)(F)F -0.732%
COc1ccc2c(c1)c(=O)c(C(=O)c1ccc(F)cc1)cn2CC(=O)Nc1ccc2c(c1)OCCO2 -22.9%
COc1ccc(-c2oc3ncn4nc(-c5ccccc5OC)nc4c3c2-c2ccc(OC)cc2)cc1 -18.6%
CCOc1ccc(-n2c(-c3ccc(Br)cc3)cc3c2CC(C)(C)CC3=O)cc1 -8.55%
CCOC(=O)c1cc(-c2ccc(F)cc2)n(CCC(=O)Nc2nc3cc(C)c(C)cc3s2)c1C -6.16%
Cc1nnc2c3ccccc3nc(Nc3ccc(F)cc3Cl)n12 13.4%
Cc1ccc2c(CC(=O)Nc3nnc(C(C)C)s3)coc2c1C -1.26%
COc1cc(OC)cc(-n2c(=O)c3sccc3n(Cc3cc(=O)n4c(C)cccc4n3)c2=O)c1 -7.44%
OCCN1CCN(c2ncnc3c2cnn3-c2cccc(Cl)c2)CC1 19.6%
Cc1ccc(Cl)cc1NC(=O)Cn1nnc2sc3c(c2c1=O)CCC(C(C)(C)C)C3 (centres undefined) -27.2%
